# ± gives the standard deviation of the averaged measurements. The list shows a part of the results.
# System: PfAP2-I AP2 domain 3 (GST-tagged)
# Assay: gcPBM binding intensity (ln(normalized median fluorescence intensity)); higher = stronger DNA binding
# Procedure, shortened: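 GST-tagged P. falciparum DNA-binding domains, expressed in E. coli (about 25 μg on average), were applied for 1 h to an Agilent 4 × 180k array of primer-extended double-stranded 36-bp intergenic genomic probes plus negative controls. The binding buffer was 1× PBS with 1% milk, 0.2 mg/ml BSA, 0.5% salmon testes DNA and 0.03% Triton X-100. Bound protein was detected with Alexa488 anti-GST antibody and scanned at 488 nm. Binding intensity is the highest Masliner-normalised natural-log median intensity across replicate spots of either probe orientation.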
row,Sequence,gcPBM binding intensity (ln)
1,ATTTTTTTTTCTTAATGTACATACCAAAAAGAAAGA [XGTACX_site5471],7.98 ± 0.51
2,TATTAATATATATGTTGTACAAGTTTTTTTTTTTTT [XGTACX_site5865],7.92 ± 0.12
3,GATAAAATATGTTGCCGTACATATTCATATACTTAA [XGTACX_site4776],7.81 ± 0.58
4,TTTGTCTGCATACGCACACACGTGTACCATCTTATG [CACACA_site4784],8.71 ± 0.63
5,ATATAAAATAATACATGTACATATTATATATATATA [XGTACX_site1082],9.1 ± 0.14
6,TATATACGCATTTTTATACACACTTGTTTTATAAAA [CACACA_site727],8.02 ± 0.33
7,TTCTATATTTCTTTTTGTACATATAAATTCAAATAA [XGTACX_site2476],8.21 ± 0.45
8,TATATAAAATATTAATGTACATATAAATATATATAT [XGTACX_site6656],8.885 ± 0.049
9,ATTTATGAAAGAAATAGTACACACATAAACATTTGT [XGTACX_site5862],7.97 ± 0.65
10,GTAATTAAAATATATACACACAAAGGCTATTAAATA [CACACA_site1011],7.68 ± 0.52
11,TTTAATACGAATGAGGCACACACCTAGTATACATGC [CACACA_site621],7.96 ± 0.66
12,TTTAATTTTTTTAAAACACACAAATATATATATATA [CACACA_site3898],9.44 ± 0.39
13,CAAAATAATATATATACACACACACCGATATATATA [CACACA_site8082],8.06 ± 0.76
14,GTTAGCATATTAAGTTGTACACAATTATTCTTCAAT [XGTACX_site8324],8.08 ± 0.42
15,TGGTATTTTGATGATAAAAGGAAATTTTTTTTATAC [XGTACX_negctrl_site111],7.83 ± 0.28
16,AACAAAGAAAATACATGTACAAAAAATATTAACGAA [XGTACX_site287],8.21 ± 0.69
17,AATATAATATAATGCACACATAAACAAAAAAAAAAA [CACACA_site783],11.2 ± 1
18,ATTAATAATCGAAAGGTGCACTTTGATTTGATAACA,11.2 ± 0.3
19,TTATTATTTTATCGTAGTACACCTAAATTATAAAAC [XGTACX_site5251],8.425 ± 0.078
20,TAATTAAAATTATTTATAAATTAGTATATTTCTATA [CACACA_negctrl_site663],7.21 ± 0.37
21,TTACAAAAATTTTGTTCACACATAAAAATATGTTAC [CACACA_site5740],7.5 ± 0.6
22,ATATATTTTTCAAAATGTACAAATAATTAAATACCA [XGTACX_site875],7.72 ± 0.38

row,Sequence,gcPBM binding intensity (ln)
1,TAATAAATTATTTTTTATTATTTTAATAACACTTCA [CACACA_negctrl_site3],7.24 ± 0.39
2,ATATAAAAAAATTGCACACATAAATATATACATATA [CACACA_site1218],8.47 ± 0.042
3,TTTATGTACAGACATATACACACCTCTATAATATAT [CACACA_site730],8.1 ± 0.11
4,GATACATAGAAACACACACACATACATATATACATA [CACACA_site3438],8.01 ± 0.4
5,TATTGTAATATTATATATATCTATTATGTATATAAA [CACACA_negctrl_site454],7.38 ± 0.26
6,AATTATATATTAAAAAGTACAAGTTAATATAATATA [XGTACX_site2737],7.71 ± 0.34
7,ATGAATATATATATTTGTACATATGTATATATATAT [XGTACX_site7527],9.05 ± 0.5
8,TATATATTTTTTTCATGTACTTATTATATATATATA [XGTACX_site5321],9.12 ± 0.2
9,GGAAATATAAAATCATGTACATATGTATATATAATT [XGTACX_site5491],7.81 ± 0.45
10,AGTATAGATGTATACACACACCAAACGTTAAAAAAA [CACACA_site7443],7.89 ± 0.71
11,CCGATATAATGGAAAACACACAAAAGATATATATAT [CACACA_site2683],9.01 ± 0.15
12,ACATACATTTTTAAATGTACATATATATATATATAT [XGTACX_site6751],9.29 ± 0.35
13,ATATGGCACATATGTACACACGTATAGATAATATTA [CACACA_site5162],8.58 ± 0.014
14,ATTTATTTATTTATATGTACTTAAATGAAAGGAATA [XGTACX_site6024],7.92 ± 0.092
15,TTTCAAAATTTTTATTTTAAATAAACATTTATAAAA [CACACA_negctrl_site1588],7.47 ± 0.27
16,AATATTATATGGACGTGTCCACATAAACCTATATAT [XGTACX_site2053],7.75 ± 0.52
17,TTAGTAAATACATTTGCACACATTATTTTTTAACAT [CACACA_site5448],9.36 ± 0.11
18,TATATATATATATATATATATATATATATAATATTA [XGTACX_negctrl_site558],9.26 ± 0.76
19,AATCATATTTAGATTACACACAGTTTAAATATTTTA [CACACA_site1263],7.54 ± 0.56
20,TGTAATGTTTACAACACACAAATTATAAATACAAAA [CACACA_site5047],7.67 ± 0.59
21,TATTTAAATGGATGCACACATGCATTAAATAAAATA [CACACA_site3433],9.04 ± 0.73
22,TACAAACAGACATATACACACAAAAAAAAAATAAAA [CACACA_site2562],7.75 ± 0.4
